The whole screen tested about 48,000 compounds, of which about 550 (1.1%) were called active. About 4% were inconclusive and are not listed. No stated cut-off is given here; in the data, active means potency below about 15 µM; inconclusive means mostly about 16 µM to 33 µM; inactive means weaker than that. Some of the results follow.
Potency means the concentration at half of the fitted maximal effect.

Sequence of UniProt P04062 (P04062 whole entry, looked up): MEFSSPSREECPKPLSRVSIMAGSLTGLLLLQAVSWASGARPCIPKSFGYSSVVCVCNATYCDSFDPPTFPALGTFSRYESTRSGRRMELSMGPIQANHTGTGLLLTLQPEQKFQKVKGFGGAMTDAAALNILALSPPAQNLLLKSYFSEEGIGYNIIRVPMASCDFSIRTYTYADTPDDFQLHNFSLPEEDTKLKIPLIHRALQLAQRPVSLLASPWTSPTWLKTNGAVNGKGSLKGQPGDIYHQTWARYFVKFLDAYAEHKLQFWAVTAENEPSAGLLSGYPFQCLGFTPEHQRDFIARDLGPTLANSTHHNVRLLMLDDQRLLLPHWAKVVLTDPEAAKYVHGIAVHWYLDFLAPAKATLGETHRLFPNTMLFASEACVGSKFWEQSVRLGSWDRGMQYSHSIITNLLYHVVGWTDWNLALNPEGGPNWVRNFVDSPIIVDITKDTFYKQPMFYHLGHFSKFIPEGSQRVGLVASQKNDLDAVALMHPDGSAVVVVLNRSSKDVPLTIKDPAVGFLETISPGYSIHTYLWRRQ

In the experiment the target is Lysosomal acid glucosylceramidase (Homo sapiens) (UniProt P04062). Kind of experiment: Glucocerebrosidase.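 Further: the screen sought inhibitors.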 The conditions noted are these: purified enzyme, resorufin glucoside fluorescence (screen aimed at inhibitors), 20 min. The essentials:
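Wild-type enzyme at 0.2 nM final in 50mM citric acid/KH2PO4, 10mM sodium taurocholate, 0.01% tween-20, pH 5.9, with resorufin beta-D-glucopyranoside at 30 uM final. Compounds titrated, 20 min at RT, red fluorescence read; AC50 from titration.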
`CCc1nnc(NC(=O)CSc2ncc(-c3ccccc3)n2C)s1`: the Potency entry was “inactive”.

With `CC(C)C[C@H](N)c1nnc(S(=O)(=O)Cc2cccc(F)c2)o1`, the Potency was inactive: > 76.9 µM. For `COC(=O)CNC(=O)Cc1c(F)cccc1Cl` the value was inactive: > 76.9 µM; for `Cc1ccc(C(=O)Oc2ccc3c(c2)ncn3C)cc1`, inactive: > 76.9 µM; for `O=C(c1ccc(F)cc1)N1CCC(O)(c2cccnc2)CC1`, inactive: > 76.9 µM. For `Cc1ccc(C)c(N2CCN(C(=O)COc3cc(=O)n(C)c4ccccc34)CC2)c1` the value was inactive: > 76.9 µM; for `O=C1CCCC2=C1C(c1c(Cl)nc3sccn13)C1=C(CCCC1=O)N2`, inactive: > 76.9 µM; for `COC(=O)C1=C(C)Nc2ncnn2C1c1ccc(OCc2ccccc2)cc1` (configuration not stated), inactive: > 76.9 µM.

Take `N#Cc1c(C(F)(F)F)cc(-c2ccccc2)nc1SCc1nc(N)nc(N2CCOCC2)n1`: the Potency is inactive: > 76.9 µM. As for `Cc1ccccc1-n1nc2c(c1NC(=O)c1cc3ccccc3oc1=O)CS(=O)(=O)C2`, the Potency is inactive: > 76.9 µM. Regarding `O=C(Nc1ccc(F)cc1)N1CCOCC1`, the Potency was inactive: > 76.9 µM. In the case of `COCCn1c(-c2ccc(Cl)cc2)cnc1SCC(=O)NCc1cccs1` it was inactive: > 76.9 µM; in that of `O=C(CC1C(=O)NCCN1C(=O)Nc1ccccc1)Nc1ccc2c(c1)OCO2` (configuration not stated), inactive: > 76.9 µM. For the compound `Cc1c[nH]c2cccc(OCC(O)CNC(C)(C)C)c12` (configuration not stated), the Potency is inactive: > 76.9 µM.

For the compound `Cc1ccc(OCc2ccc(C(=O)Nc3nccs3)o2)cc1`, the Potency is inactive: > 76.9 µM.

`CCCOC(=O)c1[nH]c2c(c1C)C(=O)CC(c1ccc(OC)c(OC)c1)C2` (configuration not stated): the Potency was inactive: > 76.9 µM. For `CCc1ccc(NC(=O)CCNS(=O)(=O)c2cccc3nonc23)cc1` the value was inactive: > 76.9 µM; for `CCc1cc2c(CN3CCN(CC)CC3)cc(=O)oc2cc1O`, “inactive”; for `O=C(Nc1ccccc1C(=O)N1CCOCC1)c1noc2c1CCCC2`, inactive: > 76.9 µM. In the case of `CNc1nnc(CSc2nc(C)cc(C)n2)s1` it was inactive: > 76.9 µM.

For the compound `CC(=O)OCC(OC(C)=O)C(OC(C)=O)C(OC(C)=O)C(=O)Nc1ccc(C)cc1` (configuration not stated), the Potency is inactive: > 76.9 µM. For `COc1ccc(NC(=O)c2cc(-c3cc(C)cc(C)c3O)n[nH]2)cc1Cl` the value was inactive: > 76.9 µM; for `COc1ccc(NC(=O)CCCN2C(=O)CCC2=O)cc1Cl`, inactive: > 76.9 µM; for `CCc1ccc(-n2c(SCC(=O)Nc3cc(C)[nH]n3)nc3[nH]ncc3c2=O)cc1`, inactive: > 76.9 µM. For `CC1Cc2ccccc2N1C(=O)c1ccnc(C(C)(C)C)c1` (configuration not stated) the value was inactive: > 76.9 µM. For `CCN(CC)c1cc2nonc2c2nonc12` the value was inactive: > 76.9 µM; for `CC1CCCCC1NC(=O)Cn1cnc2ccccc2c1=O` (configuration not stated), inactive: > 76.9 µM.

With `CCOc1nc(NCCC2=CCCCC2)nc(N2CCOCC2)n1`, the Potency is inactive: > 76.9 µM. In the case of `CC1CN(CCC(=O)Nc2ccc3c(c2)OCO3)CC(C)O1` (configuration not stated) it was inactive: > 76.9 µM; in that of `CCn1c(SCC(=O)c2ccc3c(c2)OCCO3)nnc1-c1ccco1`, inactive: > 76.9 µM; in that of `COc1ccc2[nH]cc(C(=O)CN3CCC(C)CC3)c2c1`, inactive: > 76.9 µM. In the case of `COCCN1C(=O)c2oc3cc(C)c(C)cc3c(=O)c2C1c1cccc(O)c1` (configuration not stated) it was inactive: > 76.9 µM. In the case of `CC(C)(C)OC(=O)NCCc1nnc(SCC(=O)c2ccc(Cl)cc2)o1` it was inactive: > 76.9 µM; in that of `Cc1ccc2nc(Nc3nc(C)cc(C(F)(F)F)n3)nc(C)c2c1`, inactive: > 76.9 µM.

For the compound `COC(=O)Cn1c(CCS(=O)(=O)c2ccc(C)c(C)c2)nc2ccccc21`, the Potency entry is “inactive”. For `O=C(c1cc2c(=O)oc3ccccc3c2s1)N1CCN(c2ccccn2)CC1`, the Potency is inactive: > 76.9 µM.

On to `COc1ccccc1N=c1scc(-c2ccc3c(c2)NC(=O)CO3)n1CC1CCCO1` (configuration not stated), for which the Potency was inactive: > 76.9 µM. In the case of `CC[N+](CC)(CC)C/C(N)=N/O`, the Potency was inactive: > 76.9 µM.

With `Cc1nc2ccccc2c(=O)n1NC(=O)c1ccc(F)cc1Cl`, the Potency is inactive: > 76.9 µM. Take `Cc1nnc(NC(=O)c2ccc3c(c2)C(=O)N(CC2CCCO2)C3=O)s1` (configuration not stated): the Potency is inactive: > 76.9 µM.

Consider `Cc1cc(C)cc(-n2nnc(C(=O)NCc3ccc(Cl)cc3)c2N)c1`, for which the Potency is inactive: > 76.9 µM. For `COc1ccc(OCCC(=O)Nc2cc(C)on2)cc1` the value was inactive: > 76.9 µM; for `O=C(COc1cccc2cccnc12)NCC(F)(F)F`, inactive: > 76.9 µM. Turning to `O=C(NC(C(=O)O)c1ccccc1)c1ccc(S(=O)(=O)N2CCOCC2)cc1` (configuration not stated), the Potency was inactive: > 76.9 µM. For `Cc1cc(NC(=O)COn2nnc3ccc(Cl)cc32)no1` the value was inactive: > 76.9 µM; for `CCC(C)NC(=O)c1c(N)n(/N=C/c2ccccn2)c2nc3ccccc3nc12` (configuration not stated), inactive: > 76.9 µM. For `O=C(c1ccc2c3c(cccc13)CC2)N1CCOCC1` the value was inactive: > 76.9 µM; for `Cc1ccc(CN2CCN(C(=O)C3CCC3)CC2)cc1`, inactive: > 76.9 µM. Turning to `Cc1ccc(NC(=O)Cn2nc(C)c3ccccc3c2=O)c(C)c1`, the Potency was inactive: > 76.9 µM. In the case of `CN(C)S(=O)(=O)c1ccc(NC(=O)c2cc3ccccc3o2)cc1` it was inactive: > 76.9 µM.

With `COc1ccc(CN(C(=O)Cn2nnc3ccccc32)C(C(=O)NC(C)(C)C)c2ccco2)cc1` (configuration not stated), the Potency was inactive: > 76.9 µM. In the case of `CN1CCN(CC(O)COCc2ccc3c(c2)OCO3)CC1` (configuration not stated) it was inactive: > 76.9 µM. Turning to `O=C(Cn1nnc(-c2ccccc2)n1)OCc1ccccc1`, the Potency was inactive: > 76.9 µM. For `COc1cc(NC(=O)CN2C(=O)c3ccccc3S2(=O)=O)c(OC)cc1Cl`, the Potency is inactive: > 76.9 µM.

Turning to `COc1ccc(C(=O)Nc2ccc(S(=O)(=O)N3CCCCC3)cc2)cc1OC`, the Potency was inactive: > 76.9 µM. On to `COc1ccc(CNC(=O)Nc2cccc(C)c2)cc1`, for which the Potency was inactive: > 76.9 µM.

As to `CCCOC(=O)CN1C(=O)c2ccc(C(=O)OCCC)cc2C1=O`, the Potency was inactive: > 76.9 µM.

As to `CCOc1ccc(/C(O)=C2/C(=O)C(=O)N(CCOCCO)C2c2ccccn2)cc1` (configuration not stated), the Potency was inactive: > 76.9 µM. For `CCN(CC)C(=O)N1CCN(S(=O)(=O)c2ccc(C)c(C)c2)CC1`, the Potency was inactive: > 76.9 µM.

For the compound `CC(C)(C)OC(=O)N[C@@H](Cc1c[nH]c2ccccc12)c1nnc(SCC(N)=O)o1`, the Potency is inactive: > 76.9 µM. For `CCCn1c(N2CCC(Cc3ccccc3)CC2)nc2c1c(=O)[nH]c(=O)n2C` the value was inactive: > 76.9 µM. Take `Cc1ccc2c(SCC(=O)NCc3ccco3)nc(-c3ccc(F)cc3)nc2c1`: the Potency was inactive: > 76.9 µM. In the case of `CCCOc1cccc(C(=O)Nc2nnn(CCC)n2)c1` it was inactive: > 76.9 µM; in that of `COC1=C(OC)c2ccccc2C(C(=O)O)N/C1=C(/C)Nc1ccncc1` (configuration not stated), inactive: > 76.9 µM. For `CC(=O)Nc1ccccc1OCC(=O)c1cc(C)n(Cc2cccs2)c1C`, the Potency was inactive: > 76.9 µM. For `CC(C)C(c1nnnn1C1CCCCC1)N1CCOCC1` (configuration not stated) the value was inactive: > 76.9 µM; for `CCOC(=O)c1cnn(-c2ncnc3c2oc2ccccc23)c1N`, inactive: > 76.9 µM; for `CCCCCn1c2nc3ccccc3nc2c2c(=O)n(CC3CCCO3)c(C)nc21` (configuration not stated), inactive: > 76.9 µM.

For `Cc1cccc(NC(=O)C23CCC(C)(/C(=N/O)C2)C3(C)C)c1` (configuration not stated), the Potency was inactive: > 76.9 µM.

As to `N#CCCn1nnc2ccccc21`, the Potency was inactive: > 76.9 µM.

Consider `C#CCNc1nc(CC)nc2c1nnn2Cc1ccccc1F`, for which the Potency was inactive: > 76.9 µM. As to `CCn1c(SCC(=O)Nc2nc(C)c(C)s2)nnc1-c1cccnc1`, the Potency was inactive: > 76.9 µM.

For the compound `O=C(NCC(c1cccnc1)N1CCOCC1)c1cccc(Cl)c1` (configuration not stated), the Potency is inactive: > 76.9 µM.

For `O=S(=O)(Nc1nccs1)c1cc(Cl)ccc1Cl`, the Potency was inactive: > 76.9 µM. In the case of `c1ccc(Cn2nnnc2C(c2cccnc2)N2CCN(c3ccccc3)CC2)cc1` (configuration not stated) it was inactive: > 76.9 µM. For `CN(CCNC(=O)CCNC(=O)Cn1ccc2ccccc2c1=O)Cc1ccccc1` the value was inactive: > 76.9 µM; for `CCC(=O)Nc1nnc(Cc2ccccc2)s1`, inactive: > 76.9 µM; for `Cc1ccc(OCCC(=O)OCC(=O)N2c3ccccc3CC2C)cc1` (configuration not stated), inactive: > 76.9 µM. For `Cc1ccc2[nH]c(=O)c(-c3nc4c(C)cccn4c3NCc3ccco3)cc2c1` the value was inactive: > 76.9 µM; for `Cn1c(SCc2cccc3ccccc23)nnc1-c1ccco1`, inactive: > 76.9 µM; for `CCOC(=O)c1ccc(COC(=O)c2cc(=O)[nH]c3ccccc23)o1`, inactive: > 76.9 µM. Regarding `CCOc1cc2[nH]c(=O)n(Cc3cccc(OC)c3)c(=O)c2cc1OCC`, the Potency was inactive: > 76.9 µM. In the case of `O=C(NCCc1cccc(F)c1)[C@@H]1CSC2c3ccccc3C(=O)N21` (some centres not stated), the Potency is inactive: > 76.9 µM.

As to `O=C1CC(N2CCC(C(=O)N3CCCCC3)CC2)C(=O)N1` (configuration not stated), the Potency was inactive: > 76.9 µM. Turning to `CCCOc1ccccc1C1NC(=O)NC(C)=C1C(=O)OCCOC` (configuration not stated), the Potency is inactive: > 76.9 µM. For `CCCCc1c(C)nn(-c2nnc3c4ccccc4n(CC)c3n2)c1C` the value was “inactive”; for `O=c1c2ccccc2n2nnnc2n1-c1ccccc1`, inactive: > 76.9 µM; for `CC(=O)c1cc2c(cc1NS(=O)(=O)c1ccc(C)cc1)OCCO2`, inactive: > 76.9 µM. For the compound `O=C(c1cccc(F)c1)N1CCN(C(=O)C2CC2)CC1`, the Potency was inactive: > 76.9 µM. For `Cc1ccc(NC(=O)/C(CN(C)C)=N\O)cc1` the value was inactive: > 76.9 µM. `Cc1ccc(-c2nnc(COc3cccc(-n4cnnn4)c3)o2)cc1`: the Potency was inactive: > 76.9 µM. For `c1ccc2sc(SN3CCOCC3)nc2c1` the value was inactive: > 76.9 µM.

The values above are taken from PubChem BioAssay AID360 (National Center for Advancing Translational Sciences (NCATS), 2006).
